Source: article PMC12040169 (PLOS Biology, 2025)
This is one part of the list.

The compounds below were run on T1, C. trachomatis L2/434/Bu expressing GFP (CTL2-GFP). Details: total inclusion area; 28.5 h, 10 µM; inhibitor.
T1 construct: L2/434/Bu GFP intracellular growth in HeLa cells
Parameters: species or system HeLa; C. trachomatis total inclusion area by high-content imaging, normalised to DMSO
Method in brief: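 High-content images of fixed, Hoechst-stained infected cultures supply inclusion area and count (growth) plus nuclei number (viability), complementing bulk GFP/resorufin fluorescence. MIC determination is unchanged from the primary assay.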
`O=C(O)[C@@H]1CCCN1c1nc(O)cc(C(F)(F)F)n1` [CBK002865] was tested, and the “% of control remaining” value was 96.5132.
With `CCS(=O)(=O)c1nc2ccccc2n1CC(=O)Nc1ccccc1C(=O)OC` [CBK267877] the “% of control remaining” value was 88.3055.
For `O=C(Nc1ccc(Cl)nc1)C(F)(F)F` [CBK091339], the “% of control remaining” value was 67.7071.
`Cc1cc2occ(CC(=O)NCC(C)n3cncn3)c2cc1C` (stereo not drawn) [CBK282614] was tested, and the “% of control remaining” value was 102.297.
For `Cc1cc(C(=O)N2CCN(Cc3ccco3)C[C@@H]2C(C)C)c(C)[nH]1` [CBK284254], the “% of control remaining” value was 100.798.
With `O=C(CSc1ccccn1)Nc1ccc(C(=O)O)cc1` [CBK286605] the “% of control remaining” value was 43.5216.
For `Cc1ccc(N(C(=O)COc2ccc(C(C)(C)C)cc2)C2C=CS(=O)(=O)C2)cc1` (stereo not drawn) [CBK265811], the “% of control remaining” value was 115.148.
`Cc1cc(O)cc(C2CCCN(C(=O)CC3CCCC3)C2)n1` (stereo not drawn) [CBK283422] was tested, and the “% of control remaining” value was 94.2643.
With `COC(=O)c1ccc(C(=O)OC)c(NC(=O)C2CCCCC2C(=O)O)c1` (stereo not drawn) [CBK265422] the “% of control remaining” value was 109.783.
In the case of `Cc1ccc(NC(=O)COC(=O)CCc2c[nH]c(=O)[nH]2)cc1` [CBK265562], the “% of control remaining” value is reported as 86.2887.
`CC(C)(C)C(=O)N1CCc2cc(C(O)CN3CCCC3)ccc21` (stereo not drawn) [CBK282923] was tested, and the “% of control remaining” value was 108.063.
`COc1cc(CC(=O)N2CCc3c(sc4ncnc(N)c34)C2)ccc1C` [CBK306013] was tested, and the “% of control remaining” value was 53.8934.
In the case of `COCCc1nc(CN(C)C)n(Cc2ccccc2C)n1` [CBK307014], the “% of control remaining” value is reported as 62.8415.
In the case of `Cc1ccc(N(CC(O)CN2CCCC2)S(=O)(=O)c2ccccc2)cc1` (stereo not drawn) [CBK264739], the “% of control remaining” value is reported as 90.1062.
`CCCC(=O)N1CCC(Cc2ccc(-c3cccc(C)c3)cc2)(C(=O)NC(C)C)CC1` [CBK285760] was tested, and the “% of control remaining” value was 118.946.
With `CC(=O)OC(C(=O)O)C(OC(C)=O)c1nc2ccccc2s1` (stereo not drawn) [CBK264076] the “% of control remaining” value was 89.4156.
In the case of `O=C(O)CCn1c(CO)nc2ccccc21` [CBK111473], the “% of control remaining” value is reported as 75.6654.
With `O=C(Nc1nc2ccccc2s1)NC1CC1` [CBK007542] the “% of control remaining” value was 78.9011.
In the case of `C[N+]1(CC(=O)c2ccccc2)C2CCC1CC(OC(=O)C(O)c1ccccc1)C2` (stereo not drawn) [CBK022712C], the “% of control remaining” value is reported as 82.5977.
`CCCC(=O)Nc1cccnc1N1CCNCC1` [CBK004732T] was tested, and the “% of control remaining” value was 98.4693.
In the case of `CC(C)COC(=O)N1CCC(C(=O)NC(c2ccc(Cl)cc2)c2cnccn2)CC1` (stereo not drawn) [CBK059668], the “% of control remaining” value is reported as 107.49.
With `O=C(c1ccc(F)cc1)N1CCC[C@@H]1Cn1c(=O)oc2ccccc21` [CBK284529] the “% of control remaining” value was 87.6935.
`O=S(=O)(c1ccc(Cl)s1)N1CCN(c2ccccc2Cl)CC1` [CBK045098] was tested, and the “% of control remaining” value was 111.417.
For `COc1ccc(NC(=O)CSc2nc(C)c(Cc3ccc(O)cc3)[nH]2)cc1` [CBK291171], the “% of control remaining” value was 97.8654.
For `Cc1cccc(-c2ncc(NC(=O)CCc3cccnc3)nc2-c2ccc(N)cc2)c1` [CBK036684], the “% of control remaining” value was 121.555.
For `O=C(NCCCNc1c(Cl)cccc1[N+](=O)[O-])c1ccc(F)cc1` [CBK264943], the “% of control remaining” value was 94.4248.
`CC(CNC(=O)C(C)Oc1ccccc1)CN(C)C` (stereo not drawn) [CBK268658] was tested, and the “% of control remaining” value was 122.268.
In the case of `O=C(Cn1nnc(-c2ccccc2)n1)Nc1cccc([N+](=O)[O-])c1` [CBK263057], the “% of control remaining” value is reported as 101.939.
`O=C(O)/C=C/c1cccc(-c2cnc(N3CCOCC3)c3nccn23)c1` [CBK091263] was tested, and the “% of control remaining” value was 92.884.
In the case of `CC(=O)c1ccccc1OCCOCCN1CCCC(C)C1` (stereo not drawn) [CBK269625C], the “% of control remaining” value is reported as 63.5102.
`CNC(=S)N/C(=N/c1ccccc1)c1ccccc1` [CBK261037] was tested, and the “% of control remaining” value was 69.8393.
With `CN(C)C(=O)c1ccc(-c2ncc(OCCN3CCOCC3)nc2N)cc1` [CBK145183] the “% of control remaining” value was 96.0796.
In the case of `COc1ncc(-c2cncc(Nc3cccc(C#N)c3)n2)c(OC)n1` [CBK066022], the “% of control remaining” value is reported as 117.033.
With `O=C(c1cc(F)c(F)cc1F)N1CCC2(CCN(Cc3cccc(C(F)(F)F)c3)C2)C1` (stereo not drawn) [CBK132130] the “% of control remaining” value was 81.2726.
With `COc1cc(CNC(=O)N2CCN(CCc3ccccc3)CC2)cc(OC)c1OC` [CBK158910] the “% of control remaining” value was 85.8222.
`COc1ccc(CCNC(=O)c2cc(-c3ccc(C)o3)nc3ccccc23)cc1OC` [CBK265486] was tested, and the “% of control remaining” value was 81.6336.
For `Nc1cc2cccnc2nc1-c1cccc2cccnc12` [CBK067609], the “% of control remaining” value was 84.3844.
`O=C1C2C3C=CC(C3)C2C(=O)N1CCN1CCNCC1` (stereo not drawn) [CBK278185C] was tested, and the “% of control remaining” value was 113.137.
With `CCC(=O)Nc1ccc(-c2csc(N3CCSCC3)n2)cc1` [CBK306469] the “% of control remaining” value was 81.7127.
For `S=C(NCc1ccccc1)Nc1ccccc1` [CBK091617], the “% of control remaining” value was 45.6424.
For `CCOc1ccc(C(=O)Nc2nc(-c3ccc(F)cc3)cs2)cc1` [CBK072020], the “% of control remaining” value was 94.0473.
For `Cc1ccc(-c2nnc(COC(=O)c3cc(O)nc4ccccc34)o2)cc1` [CBK269741], the “% of control remaining” value was 106.667.
For `O=C(O)CCC(=O)N1CCCc2ccccc21` [CBK051167], the “% of control remaining” value was 108.159.
`CCOC(=O)c1c(NC(=O)CCN2CCCCC2)sc2c1CCCCC2` [CBK265319G] was tested, and the “% of control remaining” value was 90.0849.
With `CS(=O)(=O)c1cccc(C(=O)n2c(=O)n(CC3CCCCC3)c3ccccc32)c1` [CBK106520] the “% of control remaining” value was 71.9227.
With `Cc1nc(C)n(CCNC(=O)Cc2coc3cc(C)c(C)cc23)n1` [CBK282613] the “% of control remaining” value was 111.34.
In the case of `C=CCNc1nccnc1-c1ccccc1OC` [CBK036831], the “% of control remaining” value is reported as 103.665.
With `COc1cc(CNc2cc(-c3ccc(NC(C)=O)cc3)ncn2)cc(OC)c1OC` [CBK091185] the “% of control remaining” value was 151.461.
In the case of `CC12CN3CC(C)(CN(C1)C3c1ccc([N+](=O)[O-])cc1)C2` (stereo not drawn) [CBK262665], the “% of control remaining” value is reported as 84.8116.
In the case of `O=C(Cn1cccc2cc(C3CCCNC3)nc1-2)NC1CCCC1` (stereo not drawn) [CBK285015], the “% of control remaining” value is reported as 99.09.
In the case of `C=CCn1c(-c2sc(NC(=O)c3ccc(Cl)cc3F)nc2C)n[nH]c1=S` [CBK295361], the “% of control remaining” value is reported as 107.798.
For `O=C(Cn1c(=O)n(Cc2cccs2)c2ncccc21)NC1CC1` [CBK283898], the “% of control remaining” value was 105.334.
`COc1ccc2nc(Nc3nnc(-c4ccco4)o3)sc2c1` [CBK287486] was tested, and the “% of control remaining” value was 98.2055.
For `O=C(O)c1ccc(COc2cccc(/C=N\O)c2)cc1` [CBK288501], the “% of control remaining” value was 113.122.
`COc1ccccc1C(=O)N[C@H]1C[C@@H](c2nc(-c3cnccn3)no2)N(C)C1` [CBK288850] was tested, and the “% of control remaining” value was 108.081.
In the case of `CC(C)(C)c1cc(N2C(=O)C(O)=C(C(=O)c3ccc(Cl)cc3)C2c2cccc([N+](=O)[O-])c2)no1` (stereo not drawn) [CBK263470], the “% of control remaining” value is reported as 89.989.
With `CCCn1cc(CN2C3CCC2CC(O)(c2ccc(F)cc2)C3)cn1` (stereo not drawn) [CBK282971] the “% of control remaining” value was 89.8955.
With `CN(C)CCN1CCN(c2nc(-c3ccc4[nH]ccc4c3)cn3ccnc23)CC1` [CBK036587] the “% of control remaining” value was 123.609.
`COC(=O)c1cc(C#N)c(=O)n(CC(O)COCc2ccco2)c1` (stereo not drawn) [CBK305718] was tested, and the “% of control remaining” value was 91.2263.
In the case of `Nc1nc(CN2CCN(c3ccccc3F)CC2)nc(N2CCCc3ccccc32)n1` [CBK270234], the “% of control remaining” value is reported as 55.6119.
In the case of `COc1ccc([C@]23CC[C@H](NC(=O)Nc4ccc(F)cc4F)C[C@H]2N(C)CC3)cc1OC` [CBK066917T], the “% of control remaining” value is reported as 98.155.
With `CC(C)c1ccc(CN2CCCN(c3cc(OCCc4c[nH]c5ccccc45)ncn3)CC2)cc1` [CBK083280T] the “% of control remaining” value was 57.3564.
With `Cc1c(C(=O)N2CCNC(=O)C2(C)C)nnn1Cc1ccc(F)cc1F` [CBK305461] the “% of control remaining” value was 48.0271.
`CC(=O)c1c(CSc2ccccc2)nn2c1CCCC2` [CBK016543] was tested, and the “% of control remaining” value was 56.2776.
With `c1cncc(-c2cnn(-c3ccc4[nH]ccc4c3)n2)c1` [CBK112820] the “% of control remaining” value was 100.619.
`COc1ccc(C(=O)N2CCC3(CCCN(CC(=O)Nc4ncccn4)C3)C2)cc1OC` (stereo not drawn) [CBK132860] was tested, and the “% of control remaining” value was 88.3149.
In the case of `COc1cc(C)nc(OCCNS(=O)(=O)c2cc(C)ccc2C)n1` [CBK058870], the “% of control remaining” value is reported as 113.445.
In the case of `COc1cc(CC(=O)Nc2cccc(-c3ccc(SC(F)(F)F)cc3)c2)cc(OC)c1OC` [CBK132426], the “% of control remaining” value is reported as 87.8971.
In the case of `O=S(=O)(NCc1ccc(F)cc1Cl)c1ccc(Cl)c(Cl)c1` [CBK043785], the “% of control remaining” value is reported as 79.9317.
With `Cc1cc(S(=O)(=O)Nc2ccc3[nH]ccc3c2)c(C)o1` [CBK155743] the “% of control remaining” value was 90.6254.
In the case of `Cc1cc(Oc2ccc(Cl)cc2Cl)nc(OCC#N)n1` [CBK019232], the “% of control remaining” value is reported as 92.4259.
With `O=c1[nH]ccn1CCNc1ccc(-c2cccc3cccnc23)cn1` [CBK037658] the “% of control remaining” value was 85.5684.
In the case of `CS(=O)(=O)c1cc(Br)cc(C(=O)NCCNc2cnccn2)c1F` [CBK305731], the “% of control remaining” value is reported as 65.6206.
`CS(=O)(=O)Nc1nccnc1-c1ccc2c(c1)OCO2` [CBK050934] was tested, and the “% of control remaining” value was 98.4912.
For `CC(=O)c1sccc1NS(=O)(=O)c1ccccc1` [CBK038384], the “% of control remaining” value was 85.817.
`COc1ccc(-c2nnn(C3CCNCC3)n2)cc1OC` [CBK269870C] was tested, and the “% of control remaining” value was 92.3298.
In the case of `CCCC/C=C/c1cnc2[nH]c(=O)n(CC(C)C)c2n1` [CBK064225], the “% of control remaining” value is reported as 120.097.
For `CS(=O)(=O)N1CCN(c2ccccc2NC(=O)CSc2ccc(Cl)cc2)CC1` [CBK267607], the “% of control remaining” value was 107.023.
`O=C(NC(c1ccc(Cl)cc1)c1ccsc1)C1CCN(C(=O)Oc2ccc(Cl)cc2)CC1` (stereo not drawn) [CBK060044] was tested, and the “% of control remaining” value was 88.4104.
In the case of `COc1cccc(C2CC(=O)c3c(ccc4ccccc34)N2)c1OC` (stereo not drawn) [CBK262971], the “% of control remaining” value is reported as 84.7606.
`O=C1NCCCC12CCN(Cc1cccs1)CC2` [CBK285346] was tested, and the “% of control remaining” value was 114.228.
